We go through 58 molecules from ChEMBL document CHEMBL1201862, “PubChem BioAssay data set” (2004).

Each structure is given as a SMILES string.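 Interpolation was linear, between the two tested concentrations surrounding the appropriate level; five concentrations were tested over 48 hours in 96-well plates. GI50 = concentration required for 50% inhibition of growth.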 The source made the active and inactive calls. No stated cut-off is given here; in the data, active = GI50 up to about 1.1 µM and inactive = higher. Some results are limits rather than exact numbers.

The test has as its system NCI-H322M. As to the kind of experiment: NCI tumour cell line growth inhibition, 48 h.
As for `c1ccc2c(c1)C(=Nc1ccc(N=C3c4ccccc4-c4ccccc43)cc1)c1ccccc1-2`, the GI50 was inactive: > 100 µM. As for `C=CC(=O)N1C/C(=C\c2ccccc2)C(=O)/C(=C/c2ccccc2)C1`, the GI50 was inactive: 3.23 µM.

As to `CSC1=C(C(=O)Nc2ccccc2)C(N)=NC1=O`, the GI50 was inactive: > 100 µM. With `O=C1CCCC/C1=C1/SC(=N/c2ccccc2)/C(=N\c2ccccc2)N1c1ccccc1` the figure was inactive: > 100 µM; with `O=C(O)CSC(CC(=O)c1ccc(Cl)cc1)c1ccc(Cl)cc1` (stereo not drawn), inactive: 40.5 µM. With `Cn1c(=O)c(C(=O)Nc2nc(C34CC5CC(CC(C5)C3)C4)cs2)c(O)c2ccccc21` the figure was inactive: > 100 µM. Take `OCN(CO)c1ccc2c(c1)Cc1cc(F)ccc1-2`: the GI50 is inactive: 15.2 µM. With `CC(C)(C)CC(C)(C)c1cc2c(O)c(c1)Cc1cc(C(C)(C)CC(C)(C)C)cc(c1O)Cc1cc(C(C)(C)CC(C)(C)C)cc(c1O)Cc1cc(C(C)(C)CC(C)(C)C)cc(c1O)C2` the figure was inactive: > 100 µM; with `CC(ON1[C@](C)(c2ccccc2)CC[C@@]1(C)c1ccccc1)c1ccccc1` (stereo partly drawn), inactive: 45 µM; with `CCCCCCCCCCCCCC(=O)OC1C(O)C(CO)OC(OC)C1NC(=O)N(CCCl)N=O` (stereo not drawn), inactive: > 100 µM. For `COc1cc2c(c(OC)c1OC)CCNC2C1=C(O)COC1=O` (stereo not drawn), the GI50 is inactive: > 100 µM. `COC(=O)c1ccccc1/C=C1\Cc2cc3c(cc2C1=O)CCC3`: the GI50 was inactive: > 10 µM. With `Cc1cc(C)c2c(c1)N[S@@](=O)S2` the figure was inactive: 69.7 µM.

With `CC(C)N(C(=O)C12C3C4C5(C#N)C3C1(C#N)C5C42I)C(C)C` (stereo not drawn), the GI50 is inactive: > 100 µM.

As to `C/C(=N\NC(=S)N1CCC1)c1ccccn1`, the GI50 is active: 0.01 µM. As for `NC(=O)ON=C1CCN(Cc2ccccc2)CC1`, the GI50 is inactive: > 100 µM. In the case of `COC(=O)[C@H](Cc1ccccc1)NC(=O)c1ccc(CNC(=O)/C=C/c2cccc(Oc3ccccc3)c2)cc1`, the GI50 was inactive: 33.7 µM. As to `COC(=O)c1ccc2c(c1)sc1nc(-c3ccc(OC)cc3)cn12`, the GI50 is inactive: > 100 µM.

For the molecule `COC(=O)[C@@H](Cc1ccccc1)N1O[C@]12CCCC[C@@H]2NC(=O)OC(C)(C)C` (stereo partly drawn), the GI50 was inactive: 96.8 µM.

With `COc1cccc(NC(=O)C(=O)C(C(=O)c2ccccc2F)C2OC(=O)c3ccccc32)c1` (stereo not drawn), the GI50 was inactive: 26.8 µM.

`Cc1cc(S(=O)(=O)n2ccnc2O)c(SCCCN(C)C)cc1Cl`: the GI50 is inactive: > 100 µM.

Consider `CS(=O)(=O)OCCN(CCOS(C)(=O)=O)c1ccc(C=O)cc1`, for which the GI50 is inactive: 10.5 µM. With `Cn1c(N)c(/C=N/NC(=O)CC#N)c(=O)n(C)c1=O` the figure was inactive: > 100 µM; with `Oc1cccc2cc(Cl)cnc12`, inactive: 40.7 µM. Regarding `COc1cc(OC)c(OC)cc1/C=C/c1nc2ccccc2s1`, the GI50 was inactive: 72.6 µM. With `COc1ccc(C2SC(C)C(=O)N2c2nc(-c3nc(-c4ccc(Cl)cc4)cs3)cs2)cc1` (stereo not drawn) the figure was inactive: > 100 µM; with `CC(=O)O[C@]1(C)OC(=O)[C@@H](C)N1[N+](=O)[O-]`, inactive: > 100 µM. With `CC1=[N+](C)CCCN1C` the figure was inactive: > 100 µM; with `CC[C@]1(Cc2ccc(OC)c(OC)c2)C2CC(C(=O)OC)ON2O[C@H](OCc2ccccc2)[C@@H]1OC(C)=O` (stereo partly drawn), inactive: > 100 µM; with `CCOC(=O)Cc1ccc(Nc2nc3cc(C(F)(F)F)ccc3nc2C(=O)OCC)cc1`, inactive: > 100 µM. `CCOC(=O)c1cnc2cc3cccccc3n2c1=O`: the GI50 was inactive: > 100 µM.

Take `CC(N)(/C=C/c1ccccc1)C(=O)O` (stereo not drawn): the GI50 is inactive: > 100 µM. As to `Cc1ccc(-c2cc(-c3ccc(Cl)cc3)nc(/N=C3\C(=O)N(CN4CCOCC4)c4ccccc43)n2)cc1`, the GI50 is inactive: 27.9 µM. With `Cc1[nH]c(=O)[nH]c(=O)c1/C=C/C(=O)NC(CO)CC(C)C` (stereo not drawn) the figure was inactive: 125 µM; with `CCOC(=O)c1c(N2CCOCC2)[nH]c(=O)c(C(c2ccco2)c2c(O)c(C(=O)OCC)c(N3CCOCC3)[nH]c2=O)c1O`, inactive: > 100 µM; with `CC(=O)O[C@H]1CC[C@@]2(C)C(CC[C@]3(C)C2CC[C@]2(C)Oc4c(C)cc(O)cc4C[C@@H]23)C1(C)C` (stereo partly drawn), inactive: 10.6 µM. With `CCOC(=O)c1[nH]cc(C)c1-c1ccn(-c2ccccc2)c1` the figure was inactive: > 100 µM; with `CCOC(=O)CCC(NC(=O)c1ccc(Oc2nc3c(N)cc(C(F)(F)F)cc3nc2-c2ccccc2)cc1)C(=O)OCC` (stereo not drawn), inactive: 49.1 µM.

As for `Cn1c2ccccc2c2cc(-c3ccccc3)c3c(c21)C(=O)C=CC3=O`, the GI50 is inactive: 19.6 µM. As to `CN(C)Nc1cc(=O)[nH]c(=O)[nH]1`, the GI50 was inactive: > 100 µM.

With `COC(=O)/C=C\C(C#N)(C#N)/N=C/c1ccsc1`, the GI50 is inactive: 17.3 µM. With `Clc1ccc(Nc2nnc(CNc3ccc(-c4nnc(Nc5ccc(Cl)cc5)s4)cc3)s2)cc1` the figure was inactive: 32.6 µM; with `O=C(/C=C/c1cccs1)c1ccccc1Cl`, inactive: 15.1 µM; with `c1c[nH]c(-c2cccc3nsnc23)c1`, inactive: 84.5 µM. With `CC(O)CNC(=O)C(C)Oc1ccc(OCC2CCCCC2)cc1` (stereo not drawn) the figure was inactive: > 100 µM; with `CC1(O)CCC2(C)C(=O)C1(C)CCC21OCCO1` (stereo not drawn), inactive: > 100 µM; with `C1COCCN1.CN(C)c1ccc(-c2c(C#N)c(N)nc(S)c2C#N)cc1`, inactive: 66.5 µM. With `CCOC(=O)CCC(NC(=O)c1ccc(NCc2ccc3nc(-c4ccccc4)c(Cl)nc3c2)cc1)C(=O)OCC` (stereo not drawn), the GI50 is inactive: 53.1 µM. With `COc1cc(-c2c[nH]c3ccccc23)nc(-c2c[nH]c3ccccc23)n1` the figure was inactive: 6.92 µM; with `CC1=NN(c2cccc(Cl)c2)C2(SCC(=O)N2c2nc3ccccc3s2)C1=CC=Cc1ccccc1` (stereo not drawn), inactive: 33.7 µM. With `CC(C)c1ccc(C2C3=C(N=C4SCC(=O)N42)C(=O)c2ccccc23)cc1` (stereo not drawn) the figure was inactive: > 100 µM; with `COc1cccc2c1C(=O)c1c(O)c3c(c(O)c1C2=O)C[C@](O)(C(=O)CO)CC3OC1CC(N)C(OC2CCCCO2)C(C)O1` (stereo partly drawn), active: 0.664 µM. With `OC1[C@@H]2[C@@H](O)CCCN2C[C@@H](O)[C@H]1O` (stereo partly drawn) the figure was inactive: > 100 µM. Turning to `Nc1n[n+]([O-])c2ccc(Cl)cc2[n+]1[O-]`, the GI50 is inactive: 25.5 µM. Take `Cc1ccc(Nc2nc(C)c(C(/C=C/c3ccc(/C=C/C(=N/NC(=O)C[n+]4ccccc4)c4sc(Nc5ccc(C)cc5[N+](=O)[O-])nc4C)cc3)=N\NC(=O)C[n+]3ccccc3)s2)c([N+](=O)[O-])c1`: the GI50 is inactive: > 100 µM. With `O=P(Oc1ccc2ccccc2c1)(N1CC1)N1CC1` the figure was inactive: 72.4 µM; with `C[N+](C)(CCCn1ccnc1[N+](=O)[O-])CCCn1ccnc1[N+](=O)[O-]`, inactive: > 100 µM. With `COc1ccc(NC(=O)c2cc(OC)c(OC)c(OC)c2)cc1` the figure was inactive: 32.8 µM.
